According to the supplement of paper PMC6206098:
± gives the uncertainty stated by the source. The sequences are guide strands of siRNAs; only the seed at positions 2 to 7 varies.

How the values were obtained:
3LL = assay: cell viability relative to siNT1 control; higher = less toxic; settings: concentration: 10 nM; 96 h; Mus musculus;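 further: Luminescence-based viability of cells reverse transfected in 384-well plates with lipid-complexed siRNAs built on a non-toxic 19mer backbone whose passenger strand carries 2′-O-methyl groups at positions 1 and 2, triplicates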
HeyA8 = assay: cell viability relative to lipid-only control; HeyA8 human ovarian and H460 human lung cancer; M565 mouse liver and 3LL mouse lung cancer; siNT1 is a non-toxic control siRNA; higher = less toxic; settings: concentration: 10 nM; 96 h; Homo sapiens
Method: (§1)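 Arrayed screen of 4096 siRNA duplexes, each carrying one of all possible 6mer seeds at guide-strand positions 2-7 in a fixed neutral 19mer scaffold (constant flanks: U at position 1, then ACAUGUAAACCA, plus a 3' AA overhang). The passenger strand is 2'-O-methylated at positions 1-2 so only the guide strand loads into RISC. Duplexes were reverse-transfected at 10 nM with RNAiMAX in triplicate in 384-well plates; viability was read by CellTiter-Glo ATP content 96 h after transfection. Values are % viability normalised to lipid-only wells (HeyA8, H460, M565) or to siNT1 (3LL).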

H460 = assay: as above; settings: concentration: 10 nM; 96 h; Homo sapiens
Method: as §1

M565 = assay: as above; settings: concentration: 10 nM; 96 h; Mus musculus
Method: as §1
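Wherever cell viability relative to lipid-only control is given: reverse lipid transfection in 384-well plates, in triplicate, of duplexes on a non-toxic 19mer backbone with passenger strand 2′-O-methylated at positions 1 and 2, luminescence viability read-out.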

Row | Sequence | cell viability (3LL) [%] | cell viability (HeyA8) [%] | cell viability (H460) [%] | cell viability (M565) [%]
1 | UCUAGCAACAUGUAAACCAAA | 101 ± 9.9 | 84.7 ± 5.2 | 58.3 ± 2.4 | 63.9 ± 12
2 | UCUAGCCACAUGUAAACCAAA | 74.1 ± 16 | 20.3 ± 3.3 | 20.3 ± 0.67 | 28.9 ± 2.7
3 | UCUAGCGACAUGUAAACCAAA | 92.3 ± 12 | 86.5 ± 3.9 | 53.5 ± 5.2 | 67.4 ± 17
4 | UCUAGCUACAUGUAAACCAAA | 96 ± 10 | 62.2 ± 4 | 40.7 ± 3 | 67.7 ± 15
5 | UCUAGGAACAUGUAAACCAAA | 95.7 ± 15 | 87.2 ± 9.8 | 49.9 ± 4.5 | 87.5 ± 14
6 | UCUAGGCACAUGUAAACCAAA | 86.3 ± 7.3 | 28.9 ± 0.84 | 35.7 ± 3.3 | 23.3 ± 4
7 | UCUAGGGACAUGUAAACCAAA | 96.7 ± 18 | 89.6 ± 9.8 | 48.3 ± 2.3 | 65.1 ± 17
8 | UCUAGGUACAUGUAAACCAAA | 82.6 ± 12 | 73.1 ± 2.5 | 40 ± 2.9 | 48.7 ± 11
9 | UCUAGUAACAUGUAAACCAAA | 94.2 ± 15 | 84.8 ± 8.3 | 57.8 ± 2 | 66.1 ± 9.2
10 | UCUAGUCACAUGUAAACCAAA | 89.9 ± 7 | 76 ± 5.9 | 74.4 ± 2.9 | 38 ± 6.9
11 | UCUAGUGACAUGUAAACCAAA | 97.2 ± 17 | 90.5 ± 12 | 72.5 ± 5.4 | 76.5 ± 15
12 | UCUAGUUACAUGUAAACCAAA | 90.8 ± 18 | 81.3 ± 5.1 | 57.5 ± 5.8 | 57.9 ± 6.8
13 | UCUAUAAACAUGUAAACCAAA | 99.4 ± 17 | 89.2 ± 9.7 | 64.4 ± 5.9 | 61.2 ± 12
14 | UCUAUACACAUGUAAACCAAA | 94.4 ± 18 | 91.5 ± 2.5 | 65.1 ± 14 | 55.2 ± 11
15 | UCUAUAGACAUGUAAACCAAA | 94.7 ± 11 | 92.7 ± 13 | 70.4 ± 2.1 | 70.8 ± 8.6
16 | UCUAUAUACAUGUAAACCAAA | 91.5 ± 11 | 75.4 ± 5 | 53.7 ± 2.6 | 60.8 ± 12
17 | UCUAUCAACAUGUAAACCAAA | 101 ± 18 | 88 ± 9.6 | 63.8 ± 10 | 75.3 ± 16
18 | UCUAUCCACAUGUAAACCAAA | 79.3 ± 14 | 58.5 ± 2.1 | 54.5 ± 5 | 60 ± 13
19 | UCUAUCGACAUGUAAACCAAA | 95 ± 16 | 80 ± 2.1 | 78.2 ± 0.89 | 80.5 ± 18

Row | Sequence | cell viability (3LL) [%] | cell viability (HeyA8) [%] | cell viability (H460) [%] | cell viability (M565) [%]
20 | UCUAUCUACAUGUAAACCAAA | 94.5 ± 12 | 82.9 ± 9 | 59.9 ± 9.2 | 61 ± 11
21 | UCUAUGAACAUGUAAACCAAA | 100 ± 19 | 83 ± 5.6 | 47.8 ± 9.7 | 73 ± 5.2
22 | UCUAUGCACAUGUAAACCAAA | 66.8 ± 13 | 43 ± 1.8 | 40.3 ± 1.4 | 38.1 ± 11
23 | UCUAUGGACAUGUAAACCAAA | 94.6 ± 14 | 87.1 ± 4.8 | 55.3 ± 4.3 | 52.8 ± 6.8
24 | UCUAUGUACAUGUAAACCAAA | 80.7 ± 16 | 56.6 ± 1.1 | 66.8 ± 1.9 | 73.3 ± 15
25 | UCUAUUAACAUGUAAACCAAA | 87.7 ± 10 | 78.2 ± 1.6 | 69 ± 11 | 69.5 ± 18
26 | UCUAUUCACAUGUAAACCAAA | 96.1 ± 17 | 79.1 ± 4.6 | 53.5 ± 3 | 71.8 ± 15
27 | UCUAUUGACAUGUAAACCAAA | 93.5 ± 13 | 83.3 ± 1.5 | 57.6 ± 4.8 | 65.3 ± 12
28 | UCUAUUUACAUGUAAACCAAA | 96.9 ± 15 | 87.3 ± 5.8 | 74.6 ± 13 | 70.1 ± 16
29 | UCUCAAAACAUGUAAACCAAA | 102 ± 15 | 91.2 ± 5.2 | 39.5 ± 3.1 | 75.1 ± 12
30 | UCUCAACACAUGUAAACCAAA | 106 ± 19 | 83.4 ± 4.9 | 45.7 ± 2 | 79.8 ± 12
31 | UCUCAAGACAUGUAAACCAAA | 101 ± 8.1 | 89.3 ± 4.7 | 27.9 ± 6.6 | 69.6 ± 12
32 | UCUCAAUACAUGUAAACCAAA | 98.1 ± 14 | 86.3 ± 6.8 | 39.6 ± 6.6 | 74.3 ± 16
33 | UCUCACAACAUGUAAACCAAA | 94.8 ± 19 | 86.8 ± 6.6 | 16.3 ± 5.8 | 69.5 ± 7.3
34 | UCUCACCACAUGUAAACCAAA | 82.2 ± 18 | 70.1 ± 3.3 | 27.1 ± 4.3 | 29.7 ± 11
35 | UCUCACGACAUGUAAACCAAA | 91.7 ± 14 | 91.6 ± 6.6 | 14.2 ± 4.2 | 71.3 ± 20
36 | UCUCACUACAUGUAAACCAAA | 91.3 ± 20 | 73.2 ± 1.7 | 28.9 ± 8.6 | 65.5 ± 18
37 | UCUCAGAACAUGUAAACCAAA | 92.8 ± 15 | 89.7 ± 10 | 35.8 ± 1.4 | 66.1 ± 6
38 | UCUCAGCACAUGUAAACCAAA | 64.7 ± 10 | 58.1 ± 2.2 | 35.4 ± 1.9 | 60.6 ± 10

Row | Sequence | cell viability (3LL) [%] | cell viability (HeyA8) [%] | cell viability (H460) [%] | cell viability (M565) [%]
39 | UCUCAGGACAUGUAAACCAAA | 97.4 ± 15 | 73.3 ± 3.6 | 41.6 ± 2.8 | 55.7 ± 8
40 | UCUCAGUACAUGUAAACCAAA | 105 ± 16 | 86.9 ± 8 | 40.4 ± 0.63 | 85.9 ± 13
41 | UCUCAUAACAUGUAAACCAAA | 103 ± 14 | 87.7 ± 10 | 25.5 ± 2.2 | 90.1 ± 9.6
42 | UCUCAUCACAUGUAAACCAAA | 97.6 ± 12 | 67.3 ± 6.4 | 36.1 ± 5.3 | 48.1 ± 10
43 | UCUCAUGACAUGUAAACCAAA | 103 ± 15 | 89.2 ± 4.5 | 24.6 ± 4.6 | 74.8 ± 23
44 | UCUCAUUACAUGUAAACCAAA | 108 ± 15 | 88.5 ± 7.8 | 22 ± 1.4 | 71.3 ± 11
45 | UCUCCAAACAUGUAAACCAAA | 91.8 ± 12 | 85.3 ± 8.5 | 56.9 ± 6.5 | 65.4 ± 13
46 | UCUCCACACAUGUAAACCAAA | 89.7 ± 13 | 71.7 ± 4.7 | 63.7 ± 10 | 53.1 ± 16
47 | UCUCCAGACAUGUAAACCAAA | 92.7 ± 15 | 85.2 ± 5.8 | 68.3 ± 7.1 | 95.1 ± 10
48 | UCUCCAUACAUGUAAACCAAA | 92.9 ± 16 | 82.4 ± 12 | 53.5 ± 7.3 | 71.8 ± 12
49 | UCUCCCAACAUGUAAACCAAA | 94.5 ± 11 | 89 ± 9.2 | 65.3 ± 3.4 | 57.8 ± 11
50 | UCUCCCCACAUGUAAACCAAA | 67.3 ± 16 | 57.6 ± 4.1 | 50.3 ± 2 | 24.6 ± 6.1
51 | UCUCCCGACAUGUAAACCAAA | 94.3 ± 10 | 87.9 ± 6 | 54 ± 4.5 | 74.9 ± 18
52 | UCUCCCUACAUGUAAACCAAA | 94.1 ± 12 | 65.5 ± 4.2 | 38.7 ± 2.5 | 80.6 ± 10
53 | UCUCCGAACAUGUAAACCAAA | 97.4 ± 19 | 88.7 ± 7.4 | 47.9 ± 4.8 | 67.3 ± 14
54 | UCUCCGCACAUGUAAACCAAA | 45.2 ± 5.7 | 55.3 ± 2 | 36.9 ± 2.1 | 44.6 ± 5.4
55 | UCUCCGGACAUGUAAACCAAA | 90.1 ± 12 | 81.9 ± 4.3 | 43.2 ± 3.3 | 58.9 ± 14
56 | UCUCCGUACAUGUAAACCAAA | 91.8 ± 16 | 90.7 ± 13 | 58.1 ± 3.6 | 45.7 ± 6.7
57 | UCUCCUAACAUGUAAACCAAA | 93.7 ± 10 | 91.1 ± 7 | 63.7 ± 3.9 | 82.4 ± 10
